The text below walks through data of the antibiotic and cytotoxicity screens of Wong et al. (2023).

The other results are listed elsewhere or left out.

One experiment relates to HSkMC. The experiment can be described thus: cytotoxicity call (relative viability < 0.9). Conditions: 10 µM.
The test system of a further experiment is HepG2. The experiment can be described thus: cytotoxicity call (relative viability < 0.9). Conditions: 10 µM.
The subject of the next experiment is S. aureus RN4220. The experiment can be described thus: growth inhibition call (relative growth <= 0.2). Conditions: 50 µM.

In the case of `CC(C)Oc1cccc(-n2c(CCc3c[nH]c4ccc(Br)cc34)nc3ccccc3c2=O)c1`, the cytotoxicity call with HSkMC is “active”. Also, the cytotoxicity call in the experiment with HepG2 is “inactive”. Further, the growth inhibition call in the experiment on S. aureus RN4220 is “inactive”.

In the case of `Cc1noc(C)c1NC(=O)N(C)C[C@@H]1OCCCC[C@@H](C)Oc2ccc(NC(=O)Cc3ccccc3)cc2C(=O)N([C@@H](C)CO)C[C@@H]1C`, the cytotoxicity call in the experiment with HSkMC and in the experiment on HepG2 was “inactive” throughout. In addition, the growth inhibition call with S. aureus RN4220 is “inactive”.

`C[C@@H]1CCCCO[C@H](CN(C)S(=O)(=O)c2ccc(Cl)cc2)[C@H](C)CN([C@H](C)CO)C(=O)c2cc(NS(=O)(=O)c3ccccc3)ccc2O1`: the cytotoxicity call with HSkMC and in the experiment on HepG2 was “inactive” throughout. In addition, the growth inhibition call in the experiment on S. aureus RN4220 was “inactive”.

On to `C[C@H](CO)N1C[C@H](C)[C@@H](CN(C)C(=O)Nc2cccc(C(F)(F)F)c2)OCc2cn(nn2)CCCC1=O`, for which the cytotoxicity call in the experiment with HSkMC and with HepG2 was “inactive” in each case. Moreover, the growth inhibition call with S. aureus RN4220 is “inactive”.

`CCOCCOCCOc1oc(C(=O)NC2CCCCC2)c(-c2ccc(Cl)cc2)c1S(=O)(=O)c1ccc(Cl)cc1`: the cytotoxicity call with HSkMC and in the experiment with HepG2 was “inactive” throughout. Moreover, the growth inhibition call with S. aureus RN4220 is “inactive”.

Take `C[C@H](CO)N1C[C@H](C)[C@@H](CN(C)Cc2ccc(-c3ccccc3)cc2)Oc2ccc(NC(=O)Cn3cnnn3)cc2C1=O`: the cytotoxicity call with HSkMC and in the experiment on HepG2 was “inactive” each time. The growth inhibition call in the experiment on S. aureus RN4220 was “inactive”.

As to `C[C@@H]1CN([C@H](C)CO)C(=O)Cc2cc(NS(=O)(=O)c3cn(C)cn3)ccc2O[C@H]1CN(C)S(=O)(=O)c1ccc(Cl)cc1`, the cytotoxicity call in the experiment with HSkMC and with HepG2 was “inactive” throughout. In addition, the growth inhibition call in the experiment on S. aureus RN4220 is “inactive”.

Regarding `C[C@@H]1CN([C@@H](C)CO)C(=O)c2cc(NC(=O)CCN3CCOCC3)ccc2O[C@H]1CN(C)Cc1ccc(C(=O)O)cc1`, the cytotoxicity call in the experiment on HSkMC and with HepG2 was “inactive” in each case. Moreover, the growth inhibition call in the experiment with S. aureus RN4220 is “inactive”.

As to `COC(=O)c1c2oc(c1C(=O)OC)C(=O)N(C)Cc1cn(nn1)C[C@@H](C)NC(=O)N[C@H](COC(=O)NCCCCCC(=O)NO)CC2`, the cytotoxicity call in the experiment with HSkMC and with HepG2 was “inactive” in each case. For the same compound, in the experiment on S. aureus RN4220, the growth inhibition call was “inactive”.

As to `FC(F)(F)c1ccccc1/N=C1\CCCc2ccccc21`, the cytotoxicity call in the experiment with HSkMC and in the experiment on HepG2 was “inactive” throughout. In the experiment with S. aureus RN4220, the growth inhibition call is “inactive”.

As to `C[C@@H]1CN([C@@H](C)CO)C(=O)Cc2cc(NC(=O)C3CC3)ccc2O[C@@H]1CN(C)C(=O)Nc1ccc2c(c1)OCO2`, the cytotoxicity call with HSkMC and in the experiment on HepG2 was “inactive” throughout. In the experiment on S. aureus RN4220, the growth inhibition call is “inactive”.

Take `O=C(CN1C(=O)CSC1=O)N1CCCC1`: the cytotoxicity call in the experiment on HSkMC and in the experiment on HepG2 was “inactive” throughout. In addition, the growth inhibition call in the experiment with S. aureus RN4220 is “inactive”.

Take `O=C(O)CNC(=O)c1ccccc1`: the cytotoxicity call in the experiment on HSkMC and in the experiment on HepG2 was “inactive” throughout. Besides, the growth inhibition call in the experiment on S. aureus RN4220 was “inactive”.

`COCC#Cc1cnc2c(c1)C(=O)N([C@@H](C)CO)C[C@H](C)[C@@H](CN(C)C(C)=O)O2`: the cytotoxicity call with HSkMC and in the experiment on HepG2 was “inactive” in each case. Further, the growth inhibition call in the experiment with S. aureus RN4220 was “inactive”.

Take `C[C@H]1CN([C@@H](C)CO)C(=O)c2cccc(NC(=O)c3nc4ccccc4s3)c2O[C@@H]1CN(C)S(C)(=O)=O`: the cytotoxicity call in the experiment on HSkMC and in the experiment on HepG2 was “inactive” each time. For the same compound, the growth inhibition call in the experiment on S. aureus RN4220 is “inactive”.

Consider `COc1ccc(CN(C)C[C@@H]2OCCCC[C@H](C)Oc3ccc(NC(=O)Nc4c(C)noc4C)cc3C(=O)N([C@H](C)CO)C[C@H]2C)cc1`, for which the cytotoxicity call with HSkMC and with HepG2 was “inactive” throughout. In the experiment with S. aureus RN4220, the growth inhibition call is “inactive”.

As for `CC(=O)c1c(C)nn(CC(=O)O)c1C`, the cytotoxicity call in the experiment with HSkMC and in the experiment on HepG2 was “inactive” each time. The growth inhibition call in the experiment with S. aureus RN4220 was “inactive”.

In the case of `COc1ccc(NC(=O)N(C)C[C@H]2Oc3ccc(NS(=O)(=O)c4c(C)noc4C)cc3CC(=O)N([C@@H](C)CO)C[C@H]2C)cc1`, the cytotoxicity call in the experiment on HSkMC and with HepG2 was “inactive” throughout. The growth inhibition call with S. aureus RN4220 is “inactive”.

Take `COc1ccc([Si](C)(C)[C@@H]2[C@@H](CC(=O)N3Cc4ccccc4C[C@H]3CO)O[C@]3(C(=O)N(Cc4ccc(N5CCOC5=O)cc4)c4ccccc43)[C@H]2C)cc1`: the cytotoxicity call with HSkMC and in the experiment with HepG2 was “inactive” each time. Also, in the experiment on S. aureus RN4220, the growth inhibition call was “inactive”.

Regarding `C[C@@H]1CN([C@H](C)CO)C(=O)Cc2cc(NC(=O)Cn3cnnn3)ccc2O[C@H]1CN(C)Cc1ccc(C(=O)O)cc1`, the cytotoxicity call in the experiment on HSkMC and in the experiment with HepG2 was “inactive” throughout. Besides, the growth inhibition call in the experiment on S. aureus RN4220 is “inactive”.

With `CCN(CC)c1nc(C#N)nc(OC)n1`, the cytotoxicity call in the experiment on HSkMC and in the experiment on HepG2 was “inactive” in each case. Also, in the experiment on S. aureus RN4220, the growth inhibition call is “inactive”.

With `COc1ccc(S(=O)(=O)N2C[C@@H](O)COC[C@@H]3O[C@H](CC(=O)NCCCN4CCOCC4)CC[C@H]32)cc1`, the cytotoxicity call with HSkMC and in the experiment on HepG2 was “inactive” each time. For the same compound, the growth inhibition call with S. aureus RN4220 is “inactive”.

`CCCC(=O)Nc1ccc2c(c1)OC[C@@H](C)N(C(=O)Cc1cccnc1)C[C@@H](C)[C@H](OC)CN(C)C2=O`: the cytotoxicity call with HSkMC and with HepG2 was “inactive” in each case. Besides, the growth inhibition call with S. aureus RN4220 is “inactive”.

Turning to `C[C@@H]1CN([C@H](C)CO)C(=O)c2cc(NC(=O)c3ccncc3)ccc2O[C@@H](C)CCCCO[C@H]1CN(C)Cc1ccc(C(F)(F)F)cc1`, the cytotoxicity call with HSkMC and in the experiment on HepG2 was “inactive” throughout. The growth inhibition call in the experiment on S. aureus RN4220 was “inactive”.

As for `CN(C)c1ccc2nc3ccc(N(C)C)cc3[s+]c2c1.O.[Cl-]`, the cytotoxicity call with HSkMC and in the experiment on HepG2 was “active” throughout. In addition, the growth inhibition call with S. aureus RN4220 was “inactive”.

For `CCCCCCCCCCCCCC(=O)OC(C)C`, the cytotoxicity call with HSkMC and in the experiment on HepG2 was “inactive” each time. For the same compound, the growth inhibition call with S. aureus RN4220 is “inactive”.

Regarding `CNC(CC(C)C)C(=O)NC1C(=O)NC(CC(N)=O)C(=O)NC2C(=O)NC3C(=O)NC(C(=O)NC(C(=O)O)c4cc(O)cc(O)c4-c4cc3ccc4O)C(O)c3ccc(c(Cl)c3)Oc3cc2cc(c3OC2OC(CO)C(O)C(O)C2OC2CC(C)(N)C(O)C(C)O2)Oc2ccc(cc2Cl)C1O.Cl` (stereo unspecified), the cytotoxicity call in the experiment on HSkMC (human skeletal muscle cells) and with HepG2 was “inactive” throughout. Besides, the growth inhibition call with S. aureus RN4220 was “active”.
